{
  "source": "PubChem BioAssay AID1508642",
  "about": "(National Center for Advancing Translational Sciences (NCATS), 2021)",
  "note": "Hit rate of the full screen: of about 43,000 compounds, about 200 (0.47%) were called active. Not shown: some 12% with an inconclusive outcome. Calls follow the shape of the dose curve; as a rule, active = well fitted cell-killing curve with a large enough effect; inconclusive = small, poorly fitted or top-dose-only effect, or effect the other way; inactive = flat fitted curve, though single readings scatter. The list shows a part of the results. % is scaled to controls: 0 for no effect and ±100 for the full control effect; potency is read from the fitted curve at half-maximal effect.",
  "data": [
    {"experiment": "Cell viability qHTS assay in S16 Pmp22-F2sN cells; also: nearly all actives have a fitted effect of over 65% in size", "conditions": "S16 Pmp22-F2sN Schwann cells (luciferase reporters placed in the Pmp22 gene) viability, CellTiter-Glo, 24 h; series mostly up to 57.5 µM; activity change, negative = cytotoxicity: at the top concentration", "text": "Assay Provider: Jim Inglese Ph.D. National Center for Advancing Translational Science, National Institutes of Health, Rockville, MD CMT is a heterogeneous group of neurological disorders that affect approximately 1 in 2,500 people. In particular, the most common form of CMT, CMT1A is genetically linked to the duplication of the PMP22 gene which leads to Schwann cell overexpression, thus manifesting itself as a typical case of dose-sensitive diseases. To identify small molecule compounds that can mediate the expression of PMP22 we developed a phenotypic assay screening strategy by utilizing genome editing techniques to construct Schwann cell lines containing novel reporter technology to monitor the transcriptional or translational regulation of PMP22. For high sensitivity we use a bioluminescent reporter system embedded in the 3' UTR of the PMP22 gene (S16(c9) Pmp22-F2sN) to identify compounds that inhibit gene expression. […] We can further discriminate the effect of all transcriptionally active molecules on PMP22 translation or stability with an assay that incorporates a short NLuc peptide (HiBiT) at the C-terminus of expressed PMP22 (S16(f8) PMP22-HiBiT) allowing alpha complementation and luminescence detection of membrane-associated PMP22 protein. These assays were screened against the NCATS Sytravon Library Collection. Miniaturization of these assays to 1536-well plate format for quantitative high throughput screening (qHTS) yielded rich data sets immediately from the qHTS assay (S16(c9) Pmp22-F2sN), when compared with data from a cell viability assay (Cell TiterGlo) to identify compounds that decreased the output signals through cellular toxicity to streamline the selection process of actives for subsequent characterization using the HiBiT assay (S16(f8) PMP22-HiBiT).\nCell viability assay in S16 Pmp22-F2sN cells PROTOCOL TABLE (format as described by Inglese J, Shamu CE and Guy RK. 2007) SEQUENCE No. (e.g., 1, 2, 3, etc.); […] (e.g., Cells, Incubation, Reagent, etc.); VALUE and DESCRIPTION. 1. Cells. Add 500-1,000 cells in 4 uL in growth media (DMEM High Glucose, No Phenol Red media + 10% heat-inactivated FBS + 1% Pen/Strep supplemented media) per well into Greiner 1536-well white/solid bottom high base, TC-treated plates. 2. Compounds. Library compounds and controls added at 23nL per well, transferred by Pin Tool. 3. Incubation. Incubate plates at 37C, 5% CO2, 95% RH for 24 h. 4. Reagent. Add 3uL CellTiter-Glo per well of Greiner 1536-well plates. 5. Incubation. Incubate plates at room temperature for 15 min., protect from light. 6. Detector. FLuc luminescence measured using CCD-based camera (Viewlux). NOTES (numbers refer to Sequence numbers above; values are from representative experiments) 6. Luminescence Read: Clear filter; Exposure = 1 sec, Gain = High, Speed = Slow, Binning = 2X REFERENCES: 1. Inglese J, Shamu CE and Guy RK, Reporting data from high throughput screening of small molecule libraries, Nature Chemical Biology, 2007, 3(8): 438-441. doi.org/10.1038/nchembio0807-438 2. Yasgar A, Shinn P, Jadhav A, Auld DS, Michael S, Zheng W, Austin CP, Inglese J and Simeonov A, Compound Management for Quantitative High-Throughput Screening. J. Assoc. Lab. Auto., 2008, 13: 79-89. doi: 10.1016/j.jala.2007.12.004", "values": [
      {"molecule": "COc1ccc(NC(=O)c2ccco2)cc1NC(=O)c1cc(Br)ccc1Cl", "activity change, negative = cytotoxicity": "inactive: 5.74%"},
      {"molecule": "CCOc1ccc(C(=O)c2oc3ccccc3c2NC(=O)c2cc(=O)c3ccc(C)cc3o2)cc1", "activity change, negative = cytotoxicity": "inactive: 0.142%"},
      {"molecule": "Cc1oc2ncnc(N3CCCCC3)c2c1C(=O)N1CCN(c2ccc(Cl)cc2)CC1", "activity change, negative = cytotoxicity": "inactive: 19.4%"},
      {"molecule": "COc1ccc(S(=O)(=O)N(CC(=O)NCCc2ccccc2)c2ccc(Cl)cc2)cc1", "activity change, negative = cytotoxicity": "inactive: 19.3%"},
      {"molecule": "CCOC(=O)c1ccccc1NC(=O)CSc1cn(CC(=O)N2CCCCCC2)c2ccccc12", "activity change, negative = cytotoxicity": "inactive: -2.94%"},
      {"molecule": "CCCCN(CC)CCNC(=O)c1nn(C)c2c1CS(=O)(=O)c1ccccc1-2", "activity change, negative = cytotoxicity": "inactive: 7.98%"},
      {"molecule": "CCc1ccc(NC(=O)CCCc2nnc3n(C(C)CC)c(=O)c4sccc4n23)cc1", "note": "(centres undefined)", "activity change, negative = cytotoxicity": "inactive: 4.26%"},
      {"molecule": "COc1ccc(-c2nc3c4ccccc4n(CC(=O)N4CCN(c5ccccc5F)CC4)c(=O)n3n2)cc1", "activity change, negative = cytotoxicity": "inactive: 11.5%"},
      {"molecule": "COc1ccc(Nc2nc3c(S(=O)(=O)c4ccc(C)cc4)nnn3c3ccsc23)cc1Cl", "activity change, negative = cytotoxicity": "inactive: -8.59%"},
      {"molecule": "CC(=O)N1CCc2c(sc3c2c(=O)n(Cc2ccccc2)c(=O)n3Cc2ccccc2Cl)C1", "activity change, negative = cytotoxicity": "inactive: -14.8%"},
      {"molecule": "COc1cc2c(cc1OC)C(COc1ccccc1OC)N(C(=O)c1ccc(S(=O)(=O)N(C)C)cc1)CC2", "note": "(centres undefined)", "activity change, negative = cytotoxicity": "inactive: 4.05%"},
      {"molecule": "Cc1ccc(Cl)cc1N1CCN(C(=O)COc2cc(=O)n(C)c3ccccc23)CC1", "activity change, negative = cytotoxicity": "inactive: -2.86%"},
      {"molecule": "COc1cccc(CNC(=O)Cn2c(=O)nc(-c3ccccc3F)c3cc(Cl)ccc32)c1", "activity change, negative = cytotoxicity": "inactive: -1.17%"},
      {"molecule": "COc1ccc(Nc2oc(/C=C/c3cc(OC)c(OC)c(OC)c3)nc2C#N)cc1", "activity change, negative = cytotoxicity": "inactive: -3.21%"},
      {"molecule": "CC1CCN(S(=O)(=O)c2ccc3c(c2)N(CC(=O)NC(C)(C)C)C(=O)CS3)CC1", "activity change, negative = cytotoxicity": "inactive: 0.136%"},
      {"molecule": "COc1cc(-c2nc(-c3ccccc3)c(-c3ccc(Br)cc3)[nH]2)cc(OC)c1O", "activity change, negative = cytotoxicity": "inactive: -25.3%"},
      {"molecule": "CCCCN(CC)C(=O)CSc1nc2ccccc2c(=O)n1Cc1ccco1", "activity change, negative = cytotoxicity": "inactive: -18.5%"},
      {"molecule": "COC(=O)c1cc2sc(Cl)cc2n1Cc1nc(-c2ccccc2C)oc1C", "activity change, negative = cytotoxicity": "inactive: 2.19%"},
      {"molecule": "COc1ccc(NC(=O)C2CCN(c3ccc(Sc4ccc(C)cc4)nn3)CC2)cc1", "activity change, negative = cytotoxicity": "inactive: 23.7%"},
      {"molecule": "CC1CN(C(=O)N2CCC(C(=O)NCc3cccs3)CC2)c2ccccc2O1", "note": "(centres undefined)", "activity change, negative = cytotoxicity": "inactive: 6.88%"},
      {"molecule": "CCC1CCCCN1CCCNC(=O)c1c(O)nc2cc(C)ccn2c1=O", "note": "(centres undefined)", "activity change, negative = cytotoxicity": "inactive: 0.85%"},
      {"molecule": "Cc1cc(C)c(Cn2cnc3nc4c(cc3c2=O)CCCC4)c(C)c1", "activity change, negative = cytotoxicity": "inactive: -0.921%"},
      {"molecule": "O=C(CN1C(=O)c2ccccc2Sc2ncccc21)Nc1cccc(C(F)(F)F)c1", "activity change, negative = cytotoxicity": "inactive: 0.734%"},
      {"molecule": "COc1ccc(Nc2cc(C)c3cc(NC(=O)COc4cccc(C)c4)ccc3n2)cc1", "activity change, negative = cytotoxicity": "inactive: 12%"},
      {"molecule": "COc1cccc(CNC(=O)C2=C(C)C(=O)OC23CCCCCC3)c1", "activity change, negative = cytotoxicity": "inactive: -1.18%"},
      {"molecule": "COc1ccc2nc(NC(=O)c3nc(S(=O)(=O)Cc4ccc(C)cc4)ncc3Cl)sc2c1", "Potency": "active: 28.2 µM"},
      {"molecule": "Cc1cccc(N2CCN(C(=O)CCNS(=O)(=O)c3ccc4c(c3)CCN4C(=O)C3CC3)CC2)c1C", "activity change, negative = cytotoxicity": "inactive: -18.1%"},
      {"molecule": "Cc1ccc(-c2nnc(Nc3ccc(O)cc3)c3ccccc23)cc1S(=O)(=O)NC(C)(C)CO", "activity change, negative = cytotoxicity": "inactive: 0.541%"},
      {"molecule": "CCOc1ccc(S(=O)(=O)N(CC(=O)Nc2ccc(OC)c(Cl)c2)c2ccccc2)cc1", "activity change, negative = cytotoxicity": "inactive: 0.903%"},
      {"molecule": "Cc1nn2c(C)c(C(=O)NCc3cccc(Br)c3)cnc2c1-c1ccccc1", "activity change, negative = cytotoxicity": "inactive: -0.948%"},
      {"molecule": "CCOc1ccc(C(=O)NCC(c2ccc3c(c2)OCO3)N2CCN(C)CC2)cc1", "note": "(centres undefined)", "activity change, negative = cytotoxicity": "inactive: 13.6%"},
      {"molecule": "CCOc1ccc(NC(=O)N2CCC(n3c(C)nc4cccnc43)CC2)cc1", "activity change, negative = cytotoxicity": "inactive: -0.449%"},
      {"molecule": "Cc1cc(C)cc(NC(=O)C2CCN(c3nnc(-n4c(C)ccc4C)s3)CC2)c1", "activity change, negative = cytotoxicity": "inactive: 0.163%"},
      {"molecule": "CCOC(=O)c1scc(-c2ccc(C)cc2)c1S(=O)(=O)N1CCN(c2ccccc2)CC1", "activity change, negative = cytotoxicity": "inactive: -4.28%"},
      {"molecule": "COc1ccc(-n2c(SCC(=O)Nc3ccc4c(c3)OCO4)nc3c([nH]c4ccccc43)c2=O)cc1", "activity change, negative = cytotoxicity": "inactive: 3.79%"},
      {"molecule": "CC(=O)c1ccc(NS(=O)(=O)c2ccc3[nH]c(=O)[nH]c3c2)cc1", "activity change, negative = cytotoxicity": "inactive: -4.71%"},
      {"molecule": "COc1ccc(S(=O)(=O)N(CC(=O)Nc2ccc(C)cc2)c2ccc(C)cc2)cc1OC", "activity change, negative = cytotoxicity": "inactive: 26.2%"},
      {"molecule": "CCc1cccc(NC(=O)CN(C)S(=O)(=O)c2ccc3c(c2)n(C)c(=O)c(=O)n3C)c1", "activity change, negative = cytotoxicity": "inactive: 1.78%"},
      {"molecule": "CCOc1ccccc1CNC(=O)CCCn1c(=O)c2cccn2c2ccc(F)cc21", "activity change, negative = cytotoxicity": "inactive: -14.6%"},
      {"molecule": "Cc1ccc(CNC(=O)c2cc(NS(=O)(=O)c3ccc(C)cc3)ccn2)cc1", "activity change, negative = cytotoxicity": "inactive: 12.3%"},
      {"molecule": "CCOC(=O)c1cc(S(=O)(=O)N(C)c2ccccc2)[nH]n1", "activity change, negative = cytotoxicity": "inactive: 8.38%"},
      {"molecule": "Cc1ccc(NS(=O)(=O)c2ccc3[nH]c4c(c3c2)CCCCCC4)cc1C", "activity change, negative = cytotoxicity": "inactive: -9.48%"},
      {"molecule": "Cc1cccc(Nc2nnc(-c3ccc(C)c(S(=O)(=O)N4CCOCC4)c3)c3ccccc23)c1", "activity change, negative = cytotoxicity": "inactive: -13.5%"},
      {"molecule": "COc1ccc(CCNCc2c(C(=O)O)c(C)n(Cc3cccc(C)c3)c2C)cc1OC", "activity change, negative = cytotoxicity": "inactive: 3.25%"},
      {"molecule": "Cn1c(Oc2cccc(Cl)c2)nc2c1c(=O)n(Cc1ccccc1Cl)c(=O)n2C", "activity change, negative = cytotoxicity": "inactive: 0.873%"},
      {"molecule": "COc1ccc(NC(=O)CN(C)S(=O)(=O)c2ccc3nc(C)sc3c2)cc1Cl", "activity change, negative = cytotoxicity": "inactive: -24.3%"},
      {"molecule": "COC(=O)c1sc2cccc(F)c2c1S(=O)(=O)NCc1ccccc1Cl", "activity change, negative = cytotoxicity": "inactive: -1.55%"},
      {"molecule": "COCCn1c(C)cc(O)c(C(c2ccccc2Cl)N2CCN(c3ccccc3)CC2)c1=O", "note": "(centres undefined)", "activity change, negative = cytotoxicity": "inactive: -2.15%"},
      {"molecule": "COc1ccc(OCC(=O)N2CCN(C(=O)c3cccc(OC)c3OC)CC2)cc1", "activity change, negative = cytotoxicity": "inactive: 11%"},
      {"molecule": "CCCCN(C(=O)CCn1c(=O)oc2ccccc21)c1ccccc1", "activity change, negative = cytotoxicity": "inactive: 1.07%"},
      {"molecule": "CCOc1ccc(-c2cc(CCCC(=O)NCCc3ccc(SC)cc3)no2)cc1", "activity change, negative = cytotoxicity": "inactive: 6.74%"},
      {"molecule": "Cc1cccc(NC(=O)Cn2c(=O)n(CC3CCC(C(=O)NCCc4ccccc4)CC3)c(=O)c3ccccc32)c1C", "note": "(centres undefined)", "activity change, negative = cytotoxicity": "inactive: -1.52%"},
      {"molecule": "Cc1ccc2[nH]c(C)c(CCNC(=O)c3cc4cc(Br)ccc4oc3=O)c2c1", "activity change, negative = cytotoxicity": "inactive: -4.09%"},
      {"molecule": "O=C(NCC(c1cccnc1)N1CCc2ccccc21)c1cccc(F)c1", "note": "(centres undefined)", "activity change, negative = cytotoxicity": "inactive: -4.52%"},
      {"molecule": "O=C(NCC(c1ccco1)S(=O)(=O)c1cccs1)c1c(F)cccc1F", "note": "(centres undefined)", "activity change, negative = cytotoxicity": "inactive: -5.24%"},
      {"molecule": "CCN(CC)C(=O)c1sc2c(c1C)c(=O)n(Cc1ccccc1)c(=O)n2Cc1c(C)cc(C)cc1C", "activity change, negative = cytotoxicity": "inactive: -0.181%"},
      {"molecule": "CCN(CC)C(=O)Cn1c(=O)n(CCCCCC(=O)NCc2ccc(C)cc2)c(=O)c2sccc21", "activity change, negative = cytotoxicity": "inactive: -36.8%"},
      {"molecule": "CCOc1ccc(-n2c(=O)c3c(C)c(C)sc3n(Cc3ccc(C(C)(C)C)cc3)c2=O)cc1", "activity change, negative = cytotoxicity": "inactive: -20.3%"},
      {"molecule": "CC(=O)N1CCc2c(sc3c2c(=O)n(-c2cc(Cl)ccc2C)c(=O)n3C)C1", "activity change, negative = cytotoxicity": "inactive: 7.41%"}
    ]}
  ]
}
